Consider 56 compounds from paper PMC4336329 (PLoS ONE, 2015).

About 2,200 (0.71%) of roughly 310,000 compounds showed an effect of 50% or more. Effects have a minus sign here. This is one part of the list.

Sequence of human ether-à-go-go-related gene (hERG) potassium channel (Q12809 whole entry, looked up): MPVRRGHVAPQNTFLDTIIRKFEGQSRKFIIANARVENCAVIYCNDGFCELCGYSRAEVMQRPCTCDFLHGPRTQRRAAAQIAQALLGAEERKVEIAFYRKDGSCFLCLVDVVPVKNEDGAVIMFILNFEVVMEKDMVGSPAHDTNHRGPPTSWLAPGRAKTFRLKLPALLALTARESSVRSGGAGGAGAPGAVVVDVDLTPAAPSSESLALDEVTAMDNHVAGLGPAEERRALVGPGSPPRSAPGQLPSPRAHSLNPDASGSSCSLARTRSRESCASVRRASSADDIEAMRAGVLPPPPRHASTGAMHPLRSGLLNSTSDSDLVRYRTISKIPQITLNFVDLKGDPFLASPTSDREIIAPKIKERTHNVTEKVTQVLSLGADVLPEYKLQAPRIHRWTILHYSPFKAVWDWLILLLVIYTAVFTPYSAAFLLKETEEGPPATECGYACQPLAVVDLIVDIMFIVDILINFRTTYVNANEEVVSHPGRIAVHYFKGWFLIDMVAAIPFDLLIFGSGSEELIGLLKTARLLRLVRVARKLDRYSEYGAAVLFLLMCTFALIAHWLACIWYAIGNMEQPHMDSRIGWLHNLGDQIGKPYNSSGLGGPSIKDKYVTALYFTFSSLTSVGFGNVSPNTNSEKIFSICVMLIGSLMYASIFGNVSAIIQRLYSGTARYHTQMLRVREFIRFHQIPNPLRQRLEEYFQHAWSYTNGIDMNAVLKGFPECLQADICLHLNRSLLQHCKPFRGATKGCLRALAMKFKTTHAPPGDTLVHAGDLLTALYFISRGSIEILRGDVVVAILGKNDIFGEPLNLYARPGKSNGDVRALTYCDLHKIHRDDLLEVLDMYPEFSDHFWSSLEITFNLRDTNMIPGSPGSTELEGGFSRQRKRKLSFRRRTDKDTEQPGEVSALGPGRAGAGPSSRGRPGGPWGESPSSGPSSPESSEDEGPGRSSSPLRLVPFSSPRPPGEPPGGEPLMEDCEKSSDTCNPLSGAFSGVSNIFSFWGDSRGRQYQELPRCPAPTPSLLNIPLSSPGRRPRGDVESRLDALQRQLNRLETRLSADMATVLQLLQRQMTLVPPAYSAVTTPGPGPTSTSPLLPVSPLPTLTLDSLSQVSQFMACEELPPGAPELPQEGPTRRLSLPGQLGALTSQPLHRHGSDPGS

This experiment addresses human ether-à-go-go-related gene (hERG) potassium channel (human, UniProt Q12809). Briefly: primary screen, population patch clamp on CHO cells stably expressing hERG.
Turning to `Nc1nnc(SCC(=O)c2ccco2)s1`, the “hERG current change (%, negative = inhibition) at 1uM” value is reported as 1.58%.

For `Cl.N[C@@H](Cc1ccccc1)c1nnc(SCc2ccccc2F)o1`, the “hERG current change (%, negative = inhibition) at 1uM” value worked out at 17%.

In the case of `CCOC(=O)c1nnn(-c2nonc2N)c1CSc1ccc(C)cc1`, the “hERG current change (%, negative = inhibition) at 1uM” value was 5.3%.

Regarding `CN1CCN(C(=O)c2cnn(-c3ccccc3)c2NC(=O)c2ccc([N+](=O)[O-])cc2)CC1`, the “hERG current change (%, negative = inhibition) at 1uM” value is listed as -42.2%.

Take `O=c1c2ccccc2nc2n1CCCS2`: the “hERG current change (%, negative = inhibition) at 1uM” value was 8.55%.

For `Cc1ccc(-c2nnc(/C=C/c3ccccc3)o2)cc1`, the “hERG current change (%, negative = inhibition) at 1uM” value was -3.81%.

In the case of `COC(=O)c1c(NC(=O)CSc2nccn2C)sc(C)c1C`, the “hERG current change (%, negative = inhibition) at 1uM” value was determined as 0.619%.

Take `O=C1C=C(c2ccc(F)nc2)C[C@@H](c2ccc3c(c2)OCO3)C1`: the “hERG current change (%, negative = inhibition) at 1uM” value is 2.34%.

In the case of `CC(=O)c1ccc(S(=O)(=O)NCCC(=O)NCCc2c[nH]c3ccccc23)cc1`, the “hERG current change (%, negative = inhibition) at 1uM” value is 2.14%.

On to `Nc1ncc([N+](=O)[O-])c(N2CCCCCC2)n1`, for which the “hERG current change (%, negative = inhibition) at 1uM” value is on record as 17.7%.

As to `CSc1ccc(CN(C)CC(=O)NCCc2ccccc2)cc1`, the “hERG current change (%, negative = inhibition) at 1uM” value amounted to 6.72%.

`Cc1cc(C)cc(NC(=O)CCn2ccnc2)c1`: the “hERG current change (%, negative = inhibition) at 1uM” value is 10.5%.

For the compound `CC1=NN(C(N)=S)C(=O)C1N=Nc1cccc([N+](=O)[O-])c1` (centres unmarked), the “hERG current change (%, negative = inhibition) at 1uM” value is 17%.

For `CCCCCn1c(=O)c(C(=O)NCc2ccccc2)c(O)c2ccccc21`, the “hERG current change (%, negative = inhibition) at 1uM” value is 17.3%.

For the compound `CCOC(=O)c1c(-c2cccs2)csc1NC(=O)C(C)(C)C`, the “hERG current change (%, negative = inhibition) at 1uM” value is 8.8%.

With `CC1(C(=O)NC(=S)NNC(=O)c2ccncc2)CCCCC1`, the “hERG current change (%, negative = inhibition) at 1uM” value is recorded as 9.5%.

In the case of `Cc1cccc(C(=O)Nc2ccc3c(c2)ncn3C)c1`, the “hERG current change (%, negative = inhibition) at 1uM” value was determined as 15%.

`Cc1ccccc1-n1nc2c(c1NC(=O)c1cc3ccccc3oc1=O)CS(=O)(=O)C2`: the “hERG current change (%, negative = inhibition) at 1uM” value was -7.36%.

For the compound `CC(=O)N1CC(C)Sc2ccc(S(=O)(=O)NCc3ccccc3Cl)cc21` (centres unmarked), the “hERG current change (%, negative = inhibition) at 1uM” value was determined as 11.8%.

On to `CC(C)(C)c1cccc(/C=N/O)c1O`, for which the “hERG current change (%, negative = inhibition) at 1uM” value is given as 10.1%.

On to `C[C@@H]1CC[C@@]2(OC1)O[C@H]1C[C@H]3[C@@H]4CC=C5C[C@@H](O)[C@H](O)C[C@]5(C)C4CC[C@]3(C)[C@H]1[C@@H]2C` (some centres unmarked), for which the “hERG current change (%, negative = inhibition) at 1uM” value is recorded as 19.9%.

Consider `O=C(CNC(=O)c1ccncc1)N/N=C/c1ccc(O)cc1O`, for which the “hERG current change (%, negative = inhibition) at 1uM” value is given as 11%.

For `CCOC(=O)c1ccc(Nc2cnc3ccccc3n2)cc1`, the “hERG current change (%, negative = inhibition) at 1uM” value was 3.66%.

Regarding `COc1ccc(Cl)cc1N1C(=O)/C(=C\c2sccc2C)N=C1SCC(=O)NC1CC1`, the “hERG current change (%, negative = inhibition) at 1uM” value is reported as 6.01%.

`CC(OC(=O)c1snc(C(=O)NC2CCCCC2)c1N)C(=O)NC(C)(C)C` (centres unmarked): the “hERG current change (%, negative = inhibition) at 1uM” value is listed as 7.55%.

Regarding `O=C(COC(=O)c1ccc(S(=O)(=O)C(F)F)cc1)Nc1ccccc1C(=O)NC1CC1`, the “hERG current change (%, negative = inhibition) at 1uM” value stood at 13.7%.

In the case of `CC1CCCCN1C(=O)CSc1nnc(-c2ccc(Cl)s2)o1` (centres unmarked), the “hERG current change (%, negative = inhibition) at 1uM” value is -0.374%.

`O=c1[nH]c(NCCCO)nc2c1C1(CCCC1)Cc1ccccc1-2`: the “hERG current change (%, negative = inhibition) at 1uM” value is given as 10.5%.

Regarding `C=C1CC[C@H](O)C/C1=C/C=C1\CCC[C@]2(C)[C@@H]([C@H](C)/C=C/[C@H](C)C(C)C)CC[C@@H]12`, the “hERG current change (%, negative = inhibition) at 1uM” value was found to be 5.67%.

In the case of `COc1ccc(NCc2nnc(SCC(=O)Nc3cccc(C)c3)o2)cc1`, the “hERG current change (%, negative = inhibition) at 1uM” value was determined as 12.9%.

Consider `Cc1nnc(NC(=O)C2CCCN2S(=O)(=O)c2ccc(Cl)cc2)s1` (centres unmarked), for which the “hERG current change (%, negative = inhibition) at 1uM” value is -9.52%.

`Cc1ccc(-c2ccccc2NC(=O)C2C3C=CC(C3)C2C(=O)O)o1` (centres unmarked): the “hERG current change (%, negative = inhibition) at 1uM” value is 20%.

In the case of `O=S(=O)(CCSc1nc2ccccc2o1)c1nc2ccccc2s1`, the “hERG current change (%, negative = inhibition) at 1uM” value amounted to 2.25%.

`C=CCNC(=O)COc1c(C)ccc(C)c1C`: the “hERG current change (%, negative = inhibition) at 1uM” value worked out at 2.35%.

For the compound `O=C(COC(=O)CCCN=C1NS(=O)(=O)c2ccccc21)NC(=O)NC1CCCC1`, the “hERG current change (%, negative = inhibition) at 1uM” value stood at 15.5%.

For `COc1ccccc1NS(=O)(=O)c1cccc(C(=O)NCC(c2ccco2)N2CCCCC2)c1` (centres unmarked), the “hERG current change (%, negative = inhibition) at 1uM” value is -0.284%.

In the case of `Cc1cc(NC(=O)Nc2cc(C)nn2-c2ccccc2)n(-c2ccccc2)n1`, the “hERG current change (%, negative = inhibition) at 1uM” value is listed as 2.23%.

For `CCC(C)(C)n1nnnc1C(c1cc2cccc(C)c2[nH]c1=O)N1CCN(C(=O)c2ccco2)CC1` (centres unmarked), the “hERG current change (%, negative = inhibition) at 1uM” value is listed as 2.94%.

With `N#CC1=C(N)C2=CCCC[C@H]2[C@H](c2cccc(F)c2)C1(C#N)C#N`, the “hERG current change (%, negative = inhibition) at 1uM” value is given as 13%.

With `COc1ccc(NC(=O)CCNC(=O)Cn2cnc3ccccc3c2=O)c(OC)c1`, the “hERG current change (%, negative = inhibition) at 1uM” value turned out to be 4.76%.

Consider `CC(C)C[C@H](NC(=O)C1CCN(S(=O)(=O)c2ccccc2)CC1)C(=O)NCc1cccnc1`, for which the “hERG current change (%, negative = inhibition) at 1uM” value was 1.76%.

Turning to `CC1CCc2c(C(=O)NCc3ccccn3)csc2C1` (centres unmarked), the “hERG current change (%, negative = inhibition) at 1uM” value is 7.33%.

Turning to `C=CCn1c(=NC(=O)c2cc(Cl)sc2Cl)sc2cc(S(N)(=O)=O)ccc21`, the “hERG current change (%, negative = inhibition) at 1uM” value was 5.06%.

In the case of `COc1ccc(C2(C(=O)Nc3cc(C)on3)CCOCC2)cc1`, the “hERG current change (%, negative = inhibition) at 1uM” value is -6.57%.

Consider `Cc1ccc2c(c1)c1c3n2CCN(CC#N)C3CCC1` (centres unmarked), for which the “hERG current change (%, negative = inhibition) at 1uM” value was found to be 5.7%.

Take `Cc1ccccc1CSc1nsc(N)n1`: the “hERG current change (%, negative = inhibition) at 1uM” value turned out to be 16%.

Consider `Cc1cc(S(=O)(=O)N2CCCC(N(C)CCc3ccccn3)C2)c(C)cc1Cl` (centres unmarked), for which the “hERG current change (%, negative = inhibition) at 1uM” value was -43.7%.

Take `COc1ccc(CCNC(=O)CCCCCN2C(=O)c3ccccc3C2=O)cc1`: the “hERG current change (%, negative = inhibition) at 1uM” value stood at 6.01%.

In the case of `COC(=O)c1cc(NC(=O)c2c(-c3ccccc3)noc2C)ccc1N1CCOCC1`, the “hERG current change (%, negative = inhibition) at 1uM” value worked out at 4.11%.

On to `COc1ccc(CCNC(=O)/C(C#N)=C/c2ccc(OCC(=O)NCC3CCCO3)cc2)cc1OC` (centres unmarked), for which the “hERG current change (%, negative = inhibition) at 1uM” value was 18.5%.

Consider `O=C(CCN1C(=O)/C(=C\c2ccccc2)SC1=S)Nc1ccc(C(=O)O)cc1`, for which the “hERG current change (%, negative = inhibition) at 1uM” value is 10.7%.

For the compound `Cc1ccc(NC(=O)N2CCCC2C(=O)Nc2nnc(C(C)C)s2)cc1` (centres unmarked), the “hERG current change (%, negative = inhibition) at 1uM” value was found to be 16%.

On to `COc1ccc(S(=O)(=O)N2CCOCC2)cc1NC(=O)CN1CCN(C)CC1`, for which the “hERG current change (%, negative = inhibition) at 1uM” value was 11.4%.

Consider `COCCn1nnnc1CN1CCC(Cc2ccccc2)CC1.Cl`, for which the “hERG current change (%, negative = inhibition) at 1uM” value was 7.55%.

`CCc1ccc(C(=O)CN2C(=O)NC(C)(CCc3ccccc3)C2=O)cc1` (centres unmarked): the “hERG current change (%, negative = inhibition) at 1uM” value is 2.74%.

As for `C/C(=N/NC(=O)C1COc2ccccc2O1)c1ccc(Br)s1` (centres unmarked), the “hERG current change (%, negative = inhibition) at 1uM” value amounted to 13.8%.
